Assay results as given in article PMC4336329 (PLoS ONE, 2015).
Hit rate of the full screen: of about 310,000 compounds, about 2,200 (0.71%) showed an effect of 50% or more. Effects have a minus sign here. The list shows a part of the results.

Target: human ether-à-go-go-related gene (hERG) potassium channel (human, UniProt Q12809)
Experiment: primary screen, population patch clamp on CHO cells stably expressing hERG

human ether-à-go-go-related gene (hERG) potassium channel, sequence (Q12809 whole entry, looked up): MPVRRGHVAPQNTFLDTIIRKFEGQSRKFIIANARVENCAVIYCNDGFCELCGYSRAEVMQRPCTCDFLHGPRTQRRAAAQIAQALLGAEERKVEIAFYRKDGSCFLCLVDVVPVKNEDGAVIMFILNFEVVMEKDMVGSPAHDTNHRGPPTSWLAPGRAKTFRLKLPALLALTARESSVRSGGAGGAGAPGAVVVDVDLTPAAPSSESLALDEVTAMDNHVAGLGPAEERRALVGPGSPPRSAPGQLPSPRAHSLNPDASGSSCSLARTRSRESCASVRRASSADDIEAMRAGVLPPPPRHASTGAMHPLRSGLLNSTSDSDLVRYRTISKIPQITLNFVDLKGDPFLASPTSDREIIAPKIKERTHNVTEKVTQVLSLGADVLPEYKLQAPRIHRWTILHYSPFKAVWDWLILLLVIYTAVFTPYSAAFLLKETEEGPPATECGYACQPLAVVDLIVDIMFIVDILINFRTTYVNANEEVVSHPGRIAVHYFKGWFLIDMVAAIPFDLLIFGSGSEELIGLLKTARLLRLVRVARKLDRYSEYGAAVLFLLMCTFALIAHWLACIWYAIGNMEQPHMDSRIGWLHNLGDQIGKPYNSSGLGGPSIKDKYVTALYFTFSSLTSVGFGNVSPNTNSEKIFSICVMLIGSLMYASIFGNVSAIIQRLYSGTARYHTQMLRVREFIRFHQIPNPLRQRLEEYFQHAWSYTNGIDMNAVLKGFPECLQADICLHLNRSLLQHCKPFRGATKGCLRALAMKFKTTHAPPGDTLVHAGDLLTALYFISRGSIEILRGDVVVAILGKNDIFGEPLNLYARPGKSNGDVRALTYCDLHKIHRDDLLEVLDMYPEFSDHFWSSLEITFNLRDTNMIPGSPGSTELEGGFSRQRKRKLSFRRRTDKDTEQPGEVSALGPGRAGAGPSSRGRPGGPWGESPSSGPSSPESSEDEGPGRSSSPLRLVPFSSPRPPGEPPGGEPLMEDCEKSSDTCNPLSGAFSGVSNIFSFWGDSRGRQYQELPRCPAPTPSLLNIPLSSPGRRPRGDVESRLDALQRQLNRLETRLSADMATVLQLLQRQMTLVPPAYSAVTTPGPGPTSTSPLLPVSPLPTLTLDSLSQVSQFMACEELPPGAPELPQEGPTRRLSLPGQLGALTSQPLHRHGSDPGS

Row | Compound | hERG current change (%, negative = inhibition) at 1uM
1 | Cc1c(NC(=O)C2CCCO2)cccc1[N+](=O)[O-] (centres unmarked) | 13.1%
2 | Cc1ccc(-n2c(C)nn(CC#N)c2=O)cc1 | 15.4%
3 | O=C(COC(=O)CCC1CCCC1)NCc1ccc(Cl)cc1 | 13.7%
4 | Cc1ccc(SCC(=O)NNC(=O)C2CCCCC2)cc1 | 0.591%
5 | Cn1c(=O)c2cc(S(=O)(=O)N3CCC(c4ccccc4)CC3)ccc2n(C)c1=O | 5.82%
6 | O=c1cnnc(Nc2cccc(F)c2)[nH]1 | 17.8%
7 | CC(C)(C)CN1CCNC(=O)C1CC(=O)NC1Cc2ccccc2C1 (centres unmarked) | 9.84%
8 | COc1cccc(CC(=O)OCC(=O)NC2(C#N)CCCCC2)c1 | 14.8%
9 | N=c1c2c3c(sc2ncn1N)CCCCC3 | 1.16%
10 | CCN(CC)CCN(C(=O)c1cc2c(ccc3ccccc32)oc1=O)c1nc2cc3c(cc2s1)OCCO3.Cl | 10.9%
11 | Cc1ccc(S(=O)(=O)Nc2c(C)nc3nc(C)[nH]n3c2=O)cc1 | 19%
12 | Nc1ccccc1C(=O)Nc1ccc(Cl)cc1Cl | 20%
13 | COC(=O)c1ccccc1NC(=O)c1cc([N+](=O)[O-])nn1Cc1ccccc1 | 5.08%
14 | COc1cc(/C=N/NC(=S)NC(C)C)ccc1OCC(=O)Nc1c(C)cc(C)cc1C | 9.99%
15 | Cc1ccccc1OCC(=O)N(Cc1nnc(-c2ccc(Cl)cc2)o1)C(C)C | -6.18%
16 | CCC1(c2ccccc2)NC(=O)N(Cc2cccc([N+](=O)[O-])c2)C1=O (centres unmarked) | 0.113%
17 | COCCCN1C(=O)c2ccc(C(=O)Nc3ccc(C)cc3C)cc2C1=O | 10.1%
18 | CC(=O)C1C(=O)c2c(cccc2[N+](=O)[O-])C1=Nc1cccc(Cl)c1 (centres unmarked) | 9.7%
19 | Oc1ccccc1-c1csc(-c2ccccc2)n1 | 9.18%
20 | CS(=O)(=O)c1sc(C#N)c2c1C(=O)CC(c1ccccc1)C2 (centres unmarked) | 12.7%
21 | C[C@H](NC(=O)c1nc[nH]c1C(=O)N1CCN(c2ccccc2)CC1)C(=O)OCc1ccccc1 | 10.1%
22 | O=C(CCn1c(=O)c2cccn2c2ccccc21)Nc1ccc(F)cc1 | -5.92%
23 | CC/C(=N\N1CCN(C)CC1)c1c(O)[nH]c(=O)[nH]c1=O | 13.5%

Row | Compound | hERG current change (%, negative = inhibition) at 1uM
24 | COc1cc(NC(=O)C2=C(C)OCCS2)c(Cl)cc1C(=O)NCCN(C)C | 8.31%
25 | Brc1cccc(-c2nnc3sc(CNCc4ccco4)cn23)c1 | -32.9%
26 | COc1ccc(C(CNC(=O)c2cc3c(s2)CCC(C)C3)N2CCCC2)cc1 (centres unmarked) | 6.06%
27 | O=C(O)C1C2C=CC(C3CC23)C1C(=O)NCCc1ccccc1 (centres unmarked) | 9.67%
28 | COc1ccccc1C(=O)Nc1ccnn1C1CCN(Cc2ccccc2OCCO)CC1 | -79.5%
29 | CCc1ccccc1NC(=O)CSc1ncn[nH]1 | 13.5%
30 | COc1ccc(CC(C(=O)Nc2ccc(OC)cc2)c2nn[nH]n2)cc1 (centres unmarked) | 15.3%
31 | COc1ccc(NC(=O)c2cc(-c3ccccc3)nc3c2cnn3C(C)C)c(OC)c1 | 6.41%
32 | COC(=O)c1ccc(COC(=O)C2CCN(S(=O)(=O)c3c(Cl)cccc3Cl)CC2)o1 | -6.14%
33 | CC(=O)Nc1ccc(S(=O)(=O)NCC2CCC(C(=O)NCCCN3CCCC3=O)CC2)cc1 (centres unmarked) | -3.27%
34 | Cc1cccc2c1NC(=O)C2(O)N1CCCC(C)C1 (centres unmarked) | 14.1%
35 | Cc1ccc(CNS(=O)(=O)c2ccc(C)s2)cc1 | 11.2%
36 | COCCN(CC(=O)Nc1ccccc1C(F)(F)F)C(=O)c1ccc(-n2cccn2)cc1 | 7.18%
37 | CC1CCN(C(=O)Cn2nnc(-c3cccs3)n2)CC1 | 9.91%
38 | COc1ccc(CCNC(=O)C2CC3Cn4c(nc5ccccc54)C3N2C)cc1 (centres unmarked) | 3.21%
39 | O=C(N/N=C/c1ccc(Cl)cc1Cl)c1ccncc1 | 9.01%
40 | Cc1ccccc1NS(=O)(=O)c1ccc(C(=O)NN2CCCCC2)cc1 | 14.4%
41 | Cc1ccccc1Cn1c(=O)n(CCCC(=O)NCc2ccco2)c(=O)c2sccc21 | 10.1%
42 | Cn1c(=O)c(NCCO)c2c3c(cccc31)C(=O)c1ccccc1-2 | 4.69%
43 | CC(C)c1cc(NC(=O)c2ccccc2)cc(C(C)C)c1O | 7.77%
44 | O=C(Nc1nccs1)c1ccc(-c2ccccc2[N+](=O)[O-])o1 | 11.3%
45 | Cc1ccc(S(=O)(=O)NCCC(=O)NCc2ccco2)cc1 | 2.75%
46 | Cc1cccc(CS(=O)(=O)Cc2ccc(C(=O)N3CCC4(CC3)OCCO4)o2)c1 | 10%

Row | Compound | hERG current change (%, negative = inhibition) at 1uM
47 | C=CCOc1ccc(/C=C2/C(=N)N3N=C(CC(=O)N4CCCC4)SC3=NC2=O)cc1OC | 23.9%
48 | COc1ccccc1NC(=O)c1ccc(Cl)c(S(=O)(=O)N2CCCCC2)c1 | 18.3%
49 | CCOC(=O)C(C)Sc1nnc(Cc2cc(=O)[nH]c(=O)[nH]2)n1-c1ccc(OCC)cc1 (centres unmarked) | 1.26%
50 | COc1ccc(C(=O)OCC(=O)Nc2ccc3[nH]c(=O)[nH]c3c2)c(OC)c1OC | 8.31%
51 | Cc1ccccc1NC(=O)NC1(C(=O)N2CCC(O)CC2)CCCCC1 | 15.4%
52 | CC1CCN(Cc2c(C(=O)N/N=C/c3cc(Cl)ccc3O)nnn2-c2nonc2N)CC1 | 19.1%
53 | CC1CCN(C(=O)CSc2nnc(CNC(=O)c3ccco3)o2)CC1 | 16.4%
54 | COc1ccc(C(O)c2ncc(C(F)(F)F)cc2Cl)cc1 (centres unmarked) | 18%
55 | C/C(=N\NC(=O)C12CCC(C)(C(=O)O1)C2(C)C)c1ccccc1O (centres unmarked) | -37.8%
56 | CS(=O)(=O)N1CCN(C(=O)c2cccnc2)CC1 | 18.9%
57 | Cc1ccc(S(=O)(=O)N2CCCCC2)cc1NC(=O)C1CC(=O)N(Cc2ccco2)C1 (centres unmarked) | 10.2%
58 | Cc1[nH]c2ccccc2c1C(=O)C(=O)NCCCc1ccccc1 | 11.6%
59 | CCn1c(P(C)(=O)[O-])nc2cc(NC(=O)c3ccccc3Cl)ccc21.[K+] | -1.28%
60 | COCC1COS(=O)(=O)NC1(C)C (centres unmarked) | 9.55%
61 | O=C1c2ccccc2C(=O)N1c1nc2nccc(-c3ccccc3)n2n1 | 8.74%
62 | CCOC(=O)/C(C#N)=C/Nc1ccccc1OC | 5.72%
63 | NS(=O)(=O)c1cccc(NC(=O)COC(=O)C2(c3cccc(F)c3)CCCC2)c1 | 11.3%
64 | Cc1ccc(NC(=O)C2CC(=O)N(CCc3ccccc3)C2)cc1Cl (centres unmarked) | 11%
65 | O=C(CF)NC(NC(=S)Nc1cccc([N+](=O)[O-])c1)C(Cl)(Cl)Cl (centres unmarked) | 14.5%
66 | CSc1nc(NCc2ccco2)c2sc3nc(C(C)C)c4c(c3c2n1)CC(C)(C)OC4 | 6.33%
67 | COc1ccc2oc(C(=O)OCC(=O)N(Cc3ccccc3)C(C)(C)C)c(C)c2c1 | 14.7%
68 | COc1ccc(C)cc1NC(=O)C1CCCN1S(=O)(=O)c1ccccc1F (centres unmarked) | 9.29%
69 | Cc1cc(C(=O)OCn2nnc3ccccc3c2=O)c(C)n1-c1ccccc1 | 14.7%

Row | Compound | hERG current change (%, negative = inhibition) at 1uM
70 | CCC(C)n1c(O)c(/C=N/Nc2ccccc2)c(=O)[nH]c1=S (centres unmarked) | 10.3%
71 | COc1ccc(OCCCC(=O)NCCc2ccccc2)cc1 | 5.28%
72 | Cc1c(NS(=O)(=O)c2ccc(NCC3CCCO3)c([N+](=O)[O-])c2)c(=O)n(-c2ccccc2)n1C (centres unmarked) | -5.18%
73 | COc1cccc(-c2nnc(SCC(=O)Nc3cc(C)on3)o2)c1 | 8.6%
74 | CCOc1ccc(OCC)c(NC(=O)CCn2c(=O)oc3ccccc32)c1 | 4.38%
75 | Cn1c(CN2CCN(CCO)CC2)c(C#N)c2ccccc21 | 11.3%
76 | NC(=O)CC(c1ccccc1)c1ccco1 (centres unmarked) | 16%
77 | Cc1ccnc2nc(C(=O)Nc3nnc(-c4ccccc4)o3)nn12 | 9.69%
78 | COc1ccc(CN2CCNC(=O)C2CC(=O)NCCSc2nccn2C)c(OC)c1 (centres unmarked) | 10.2%
79 | COc1cccc(C(=O)NN2CC(O)=C(c3nc4ccccc4n3C)C2=N)c1 | 8.09%
80 | Cc1ccc(N2CC(C(=O)N3CCC(C(=O)Nc4nnc(C(C)(C)C)s4)CC3)CC2=O)cc1 (centres unmarked) | 11.9%
81 | NC(=O)c1ccccc1NS(=O)(=O)c1ccc(F)cc1 | 8.37%
82 | CCOc1ccc(-n2c(-c3ccc(OC)cc3)c[n+]3c2CCCCC3)cc1.[Br-] | -39.1%
83 | CC(CCc1ccccc1)NC(=O)CN1C(=O)NC2(CCCCC2)C1=O (centres unmarked) | 16.3%
84 | O=C(/C=C/c1ccc([N+](=O)[O-])cc1)OCc1cnc(-c2ccccc2)o1 | 7.83%
85 | CC(=O)NN1C(=O)/C(=C\c2ccccc2)SC1=S | 7.91%
86 | Cc1cc(C)nc(NCC(O)COc2ccccc2C)n1 (centres unmarked) | 6.53%
87 | Fc1cccc(CSc2nc3ncc(Cl)cc3[nH]2)c1 | 12%
88 | CCc1nnc(NS(=O)(=O)c2ccc(NC(=S)Nc3ccc(F)cc3)cc2)s1 | 13.5%
89 | CCC1(C)Cc2ccccc2-c2[nH][nH]c(=O)c21 (centres unmarked) | 14%
